Laboratory results as given in PubChem BioAssay AID1508624 (National Center for Advancing Translational Sciences (NCATS), 2021).
Out of some 48,000 compounds screened, about 120 (0.25%) were called active. Another 4% or so got no clear call; they are omitted. Calls follow the shape of the dose curve; as a rule, active = well fitted activation curve with a large enough effect; inconclusive = small, poorly fitted or top-dose-only effect, or another doubt; inactive = no such curve, though single readings can be large or run the other way. The list shows a part of the results.

Test: Primary qHTS for Identification of Small Molecule Activators of Huntingtin-Antisense Promoter Activity; also: nearly all actives have a fitted effect of over 55% in size
Settings: HEK293 HTT-AS promoter firefly luciferase reporter (activity 0% = vehicle and -100% = no light), 24 h; series mostly up to 57.5 µM; activity change, positive = activation: at the top concentration
Method in brief: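 HEK293 Fluc reporter, 2,500 cells/well, 24 h pre-culture; cpds up to 57.5 uM final, 24 h 37 degrees C; Dual-Glo, 10 min RT; normalized vehicle = 0%, zero RLU = -100%.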

Activity change, positive = activation, inactive:
CCOC(=O)c1c(C)n(-c2ccccc2)c2ccc(OC(=O)COc3ccc(Cl)cc3)cc12 -3.17%, Cc1ccc(C(C)C)c(O)c1 0.656%, Cc1cc(Nc2ccccc2C)n2nc(Cc3ccc(Cl)cc3)nc2n1 -20.9%, Cc1c(C(=O)NCc2ccccc2Cl)sc2ncnc(N(C)C3CCCCC3)c12 -31.3%, COc1ccc(NC(=O)c2cc3c(s2)-c2c(C)cccc2OC3)cc1Cl -30%, COc1ccc2nc(N(Cc3cccnc3)C(C)=O)sc2c1 9.21%, COc1cc(Cl)c(C)cc1Nc1nc2ccccc2c2nnc(C)n12 -0.822%, O=C(NCc1cccnc1)c1nn(-c2ccc(Cl)cc2)nc1CO -27.3%, COc1ccc(C2CC(=O)N3CN(C4CCCCC4)CSC3=C2C#N)c(OC)c1 (centres undefined) 6.48%, COC(=O)c1cc2oc(C)cc2n1Cc1ccc(Br)cc1F 19.3%, CCC(Oc1ccccc1-c1nnc(-c2ccccc2)o1)C(=O)Nc1ccc(C(C)=O)cc1 (centres undefined) -5.34%, COC(=O)c1ccc(NC(=O)CSc2ccc(-c3sc(-c4ccccc4)nc3C)nn2)cc1 -0.409%, CCc1ccc(-n2c(=O)c3cccnc3n2CC(=O)NCc2ccccc2)cc1 -10.2%, COc1ccccc1C1CC(=O)NC(C)=C1C(=O)OC1CCCCCC1 (centres undefined) -20.9%, O=C(NC1CC(=O)N(c2ccc(F)cc2)C1)c1ccco1 (centres undefined) -1.86%, COc1ccc(Nc2ncc3c(n2)CCN(Cc2ccccc2C)C3)c(OC)c1 1.42%, O=c1n(Cc2ccccc2Cl)c2ccccc2c2nc(-c3ccccc3)nn12 2.89%, Cc1nn2c(=O)cc(COC(=O)c3ccc(NC(=O)COc4ccc(C)c(C)c4)cc3)nc2s1 1.72%, COC(=O)C(C)Sc1ccc2nnc(CCNS(=O)(=O)c3ccc(C)cc3)n2n1 (centres undefined) -4.27%, Cc1ncc(CO)c2c1Oc1nc(-c3ccccc3Cl)nc(SCc3ccccc3F)c1C2 -19.3%, COCCCNC(=O)Cn1cnc2sc(C)c(S(=O)(=O)N3CCC(C)CC3)c2c1=O 15%, CC(C)NC(=O)c1ccc(Cn2c(SCC(N)=O)nc3ccccc3c2=O)cc1 -11.5%, CCOc1ccc(C2CC(=O)Nc3nc(SCc4ccccc4C)[nH]c(=O)c32)cc1OC (centres undefined) -44.1%, Cc1ccc(CCNC(=O)c2ccc3nc(N4CCC(C)CC4)sc3c2)cc1 -73.1%, COc1ccc(-c2nc3sc(CCNC(=O)c4ccco4)c(C)n3n2)cc1 23.9%, Cn1cc(CN(C(=O)Nc2ccccc2)C2CCCCC2)c2ccccc21 -41.4%, COc1cc2c(cc1OC)CN(C(=O)Nc1ccccc1)CC2 -20.2%, CN(C)c1ccc(CNS(=O)(=O)c2ccc(-c3cc(C(F)(F)F)on3)s2)cc1 -21%, Cc1cccc(N2CCN(S(=O)(=O)c3c(C)nc4scc(C)n4c3=O)CC2)c1C -26.3%
